The structures appear in SMILES notation. About 230 (0.21%) of roughly 110,000 compounds showed an effect of 50% or more. The list shows a part of the results.
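Further: 30 min substrate incubation versus DMSO and 10 µM JCP410 controls.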

Sequence of DPAP1 (Q8IIJ9 whole entry, looked up): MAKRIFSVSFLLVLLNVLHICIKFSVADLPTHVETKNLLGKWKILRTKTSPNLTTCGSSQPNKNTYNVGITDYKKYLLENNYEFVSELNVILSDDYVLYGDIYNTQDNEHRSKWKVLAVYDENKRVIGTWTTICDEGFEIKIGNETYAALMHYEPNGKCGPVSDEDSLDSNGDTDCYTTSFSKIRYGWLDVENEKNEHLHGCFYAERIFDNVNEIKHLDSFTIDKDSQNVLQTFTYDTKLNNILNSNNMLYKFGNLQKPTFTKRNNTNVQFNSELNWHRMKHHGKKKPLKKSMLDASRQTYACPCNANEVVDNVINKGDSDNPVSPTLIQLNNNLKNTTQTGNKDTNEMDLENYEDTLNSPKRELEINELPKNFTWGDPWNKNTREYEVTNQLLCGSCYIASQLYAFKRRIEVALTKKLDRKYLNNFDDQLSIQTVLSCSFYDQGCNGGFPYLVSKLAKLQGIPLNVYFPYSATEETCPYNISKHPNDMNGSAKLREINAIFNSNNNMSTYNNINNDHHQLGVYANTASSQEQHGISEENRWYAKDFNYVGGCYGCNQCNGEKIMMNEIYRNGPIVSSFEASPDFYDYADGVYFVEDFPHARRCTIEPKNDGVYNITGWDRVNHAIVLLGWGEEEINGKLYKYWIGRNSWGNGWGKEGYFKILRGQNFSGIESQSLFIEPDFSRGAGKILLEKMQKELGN

This experiment addresses DPAP1 (Plasmodium falciparum, UniProt Q8IIJ9). Nature of the experiment: primary screen, percent inhibition; read by cleavage of a fluorogenic dipeptide substrate; higher = more effect of the substance. The arrangement: species or system P. falciparum D10 trophozoite lysates; single well.
On to `COc1cc(OC)cc(C(=O)Nc2ccc(OC)c(OC)c2)c1`, for which the “% Inhibition @ 10 uM” value was 0.215%.

Consider `Cc1cc(O)n2nc(NC(=O)C3CC3)nc2n1`, for which the “% Inhibition @ 10 uM” value was -5.15%. With `CC(C)C[C@H](NC(=O)N1CCOCC1)C(=O)N[C@H](/C=C/S(=O)(=O)c1ccccc1)CCc1ccc(O)cc1` the figure was -5.2%; with `CN1CCCN(Cc2cccnc2)CC1`, -0.828%.

Consider `COc1ccc(CCN2C(=O)c3[nH]nc(-c4ccccc4O)c3C2c2cccc(O)c2)cc1` (stereo not drawn), for which the “% Inhibition @ 10 uM” value was -3.12%. The figure for `COc1ccc(NC(=O)c2ccc(N(C)S(=O)(=O)c3ccccc3)cc2)cc1Cl` is -4.43%. In the case of `CCOc1ccc(C(=O)Nc2ccc(C(C)=O)cc2)cc1Br`, the “% Inhibition @ 10 uM” value is reported as 4.44%.

Consider `CC(Oc1ccc(Cl)cc1Cl)C(=O)N1CCN(Cc2ccc3c(c2)OCO3)CC1` (stereo not drawn), for which the “% Inhibition @ 10 uM” value was determined as 3.67%.

For the molecule `COC(=O)c1sccc1S(=O)(=O)N1CCN(c2ccccn2)CC1`, the “% Inhibition @ 10 uM” value is reported as -6.9%. With `O=C(Nc1ccc2oc(-c3cccc(F)c3)nc2c1)c1ccc(F)cc1` the figure was -2.19%.

For the molecule `COc1cc(C2(c3ccc(O)c(OC)c3)C(=O)Nc3c(C)cc(Br)cc32)ccc1O`, the “% Inhibition @ 10 uM” value turned out to be 4.49%. With `CC1CCCC(C)N1C(=O)CCCOc1ccc(Cl)cc1Cl` (stereo not drawn) the figure was -0.261%; with `CN(CC(=O)Nc1ccccc1)S(=O)(=O)c1ccccc1`, 0.755%. The figure for `CCc1ccccc1NC(=O)c1ccc(CN2CCOCC2)cc1` is 1.72%; for `Cc1cc(NC(=O)CSc2c3c(nc4ccccc24)CCC3)no1` it is -11%. The figure for `COc1cc(OC)c(OC)cc1CN1CC(C)OC(C)C1` (stereo not drawn) is 0.815%; for `COc1ccc(C2Sc3cc(OC)ccc3NC(=O)C2O)cc1` (stereo not drawn) it is -1.51%.

As to `CC(=O)Nc1ccc(S(=O)(=O)N2c3ccccc3C(C)=CC2(C)C)cc1`, the “% Inhibition @ 10 uM” value is 2.01%. The figure for `Cc1ccc(CNC(=O)c2ccccc2F)cc1` is 1.38%; for `Cc1ccc2[nH]c(NC(=O)CC34CC5CC(CC(C5)C3)C4)nc2c1` it is 5.79%. The figure for `CCOC(=O)N1CCN(C(=O)CN(c2ccccc2Cl)S(=O)(=O)c2ccc(C)cc2)CC1` is 2.79%; for `COc1cc(C(=O)NCc2nc3ccccc3n2Cc2c(F)cccc2Cl)cc(OC)c1OC` it is -5.67%.

Consider `Cc1cccc(CC(=O)NCCn2c(C)cc3ccccc32)c1`, for which the “% Inhibition @ 10 uM” value is reported as -10.3%. The figure for `CCOC(=O)c1cnn2c1NC(c1cccc(OC)c1)CC2C(F)(F)F` (stereo not drawn) is 0.564%; for `Cc1ccn2c(NC(=O)c3ccccc3F)c(-c3ccccc3)nc2c1` it is 1.5%; for `Cc1cccc(OCc2nc(-c3ccncc3)no2)c1C` it is 3.93%. With `Cc1ccc(S(=O)(=O)Nc2ccc(NC(=O)C(C)C)cc2)cc1` the figure was -3.04%.

`Cc1c(CNCCCOC(C)C)c(C(=O)O)c(C)n1Cc1ccc(F)cc1`: the “% Inhibition @ 10 uM” value is -3.67%. The figure for `CCS(=O)(=O)C1=NN2C(=N)/C(=C\c3ccc(OC(C)c4ccccc4)cc3)C(=O)N=C2S1` (stereo not drawn) is -1.54%.

In the case of `O=c1c(Cc2ccc(F)cc2)c(O)nc2n1CCCS2`, the “% Inhibition @ 10 uM” value is on record as -3.95%.

With `CCN1CCN(c2c(C(=O)c3ccc(C)c(C)c3)cnc3cc4c(cc23)OCO4)CC1`, the “% Inhibition @ 10 uM” value is -5.54%. With `CN1C(=O)C(Cc2c[nH]c3ccccc23)NC1=S` (stereo not drawn) the figure was -0.0369%; with `CCOc1nc(-c2ccccc2)c2cc(C)ccc2n1`, 0.51%; with `COc1cc(/C=C/c2noc(-c3ccccc3O)n2)cc(OC)c1OC`, 1.72%. The figure for `CS(=O)(=O)c1ccc2nc(NC(=O)C3CCCCC3)sc2c1` is -1.44%; for `CC1(C)CC(=O)C2=C(C1)OC1=C(C(=O)CC(C)(C)C1)C2c1cccc2ccccc12` it is -0.127%. The figure for `COc1cccc(-n2nnc3c(=O)n(Cc4c(F)cccc4Cl)cnc32)c1` is 1.24%; for `COc1ccc(C2(O)CSC3=C(C#N)C(c4cccc(O)c4)CC(=O)N32)cc1OC` (stereo not drawn) it is 3.24%. In the case of `CCCCN(C)Cc1ccc(O)cc1`, the “% Inhibition @ 10 uM” value is listed as -4.75%.

`CN1CCC(N(C)CC2=CC[C@H]3C[C@@H]2C3(C)C)CC1`: the “% Inhibition @ 10 uM” value is 2.1%. With `Cc1ccccc1-c1nc(CS(=O)CC(=O)NCc2ccccc2)c(C)o1` (stereo not drawn) the figure was -2.85%; with `O=C(O)c1ccc(-c2nc(-c3ccccc3)c(-c3cccs3)[nH]2)cc1`, -2.87%; with `Cc1ccc(Cn2nnc3c(=O)n(CC(=O)N4CCC(C)CC4)cnc32)cc1`, -3.94%. With `O=[N+]([O-])c1ccc(Oc2c(-c3ccccc3)nc(Cl)nc2-c2ccccc2)cc1` the figure was -3.6%; with `CCOC(=O)c1c(C)[nH]c(C)c1S(=O)(=O)N1CCC(C(=O)NCCc2cccs2)CC1`, 0.706%. The figure for `O=C(O)/C=C\C(=O)NCc1ccco1` is 3.15%; for `CC1=C(c2ccc(C(C)C)cc2)S(=O)(=O)N=C1NCc1cccs1` it is 2.27%; for `CCN(Cc1nc(-c2cccc(C)c2)no1)S(=O)(=O)c1ccc(OC)cc1` it is -6.43%. `COC(=O)c1c(NC(=O)c2cc(OC)c(OC)c(OC)c2)sc2c1CCC(C)C2` (stereo not drawn): the “% Inhibition @ 10 uM” value was 4.35%. The figure for `CC(=O)Nc1ccc(S(=O)(=O)n2nc(-c3ccc(C)cc3)nc2N)cc1` is -6.39%; for `CC(=O)CSC(=S)N(C)Cc1cccs1` it is -1.86%.

Take `COc1cc(OC)cc(C2NCCC3(O)CCCCC23)c1` (stereo not drawn): the “% Inhibition @ 10 uM” value is recorded as -7.39%. As for `O=C(c1ccc(S(=O)(=O)N2CCCCCC2)cc1)N1CCN(c2ccccn2)CC1`, the “% Inhibition @ 10 uM” value came to 8.19%. With `Cc1ccc2cnn(CC(=O)NCCc3ccc(Cl)cc3)c2c1` the figure was -1.11%; with `Cc1ccc(N(CC(=O)NCC2CCCO2)S(=O)(=O)c2ccc(Cl)cc2)cc1C` (stereo not drawn), -3.33%; with `CCOc1ccc(CNC(=O)c2ccc3c(c2)ncn3C2CCCC2)cc1OC`, 2.05%. With `Cc1cc(C)c(C(N)=O)c(Nc2cccc(Cl)c2)n1` the figure was -5.13%; with `Cc1nn(CC(=O)N2CCC(Cc3ccccc3)CC2)c(=O)c2nn(-c3ccccc3)c(C)c12`, 1.11%. With `COc1cc(NC(=O)c2cc3nc(C(F)F)cc(C(F)F)n3n2)c(OC)cc1Cl` the figure was -2.98%; with `Cc1ccc(OCCCN2CCCC2)cc1`, 2.6%; with `CC(Nc1nc2c(S(=O)(=O)c3cccc(Cl)c3)nnn2c2ccsc12)c1ccccc1` (stereo not drawn), -2.85%. On to `COc1ccccc1Cc1nnc(C(N)=O)o1`, for which the “% Inhibition @ 10 uM” value was -3.34%. With `O=Cc1ccc(C(=O)O)s1` the figure was -3.53%.

On to `Cc1cc(C(=O)O)c(C)cc1C(=O)O`, for which the “% Inhibition @ 10 uM” value is recorded as -1.86%. With `COc1cc2nc(SCC(=O)NCc3ccccc3Cl)n3nc(C)nc3c2cc1OC` the figure was -2.29%.

With `COc1ccc2c(CNCCc3ccc(Cl)cc3)c(C(=O)O)n(C)c2c1`, the “% Inhibition @ 10 uM” value is given as -4.76%. The figure for `CC(=O)Nc1ccc(CN2CCOCC2)cc1` is -6%; for `CC(C)CC(NC(=O)C1CCNCC1)C(=O)N1CCN(S(=O)(=O)c2ccc3ccccc3c2)CC1` (stereo not drawn) it is -9.37%. As for `O=S(=O)(c1ccc2ccccc2c1)N1CCOCC1`, the “% Inhibition @ 10 uM” value amounted to 3.18%. With `Cc1[nH]c2ccccc2c1CN1CCN(Cc2ccccc2)CC1`, the “% Inhibition @ 10 uM” value was 0.708%.

On to `Cc1cccc(C(=O)Nc2sc3c(c2C(N)=O)CCCCCC3)c1`, for which the “% Inhibition @ 10 uM” value was found to be 4.12%.

In the case of `O=C(Cn1cc(C(=O)C2CC2)c2ccccc21)NCCc1c[nH]c2ccccc12`, the “% Inhibition @ 10 uM” value amounted to 1.72%. The figure for `COC(=O)c1ccc(-c2ccc(C(=O)N[C@@H](Cc3c(F)cccc3F)C(=O)NCC#N)cc2)c(Cl)c1` is -1.5%; for `CNC(=O)/C(C#N)=C/c1c(Oc2ccccc2Cl)nc2c(C)cccn2c1=O` it is -3.23%; for `Cc1ccc(Cn2c(=O)c3cccnc3n(CC(=O)c3ccc(Br)cc3)c2=O)cc1` it is -3.44%. With `Cc1cccc(C)c1NC(=O)c1ccc(Cn2cc(Cl)cn2)o1` the figure was -4.75%; with `Cc1ccc(NC(=O)c2ccc(Cl)cc2Cl)cc1O`, -2.65%. The figure for `O=S(=O)(c1ccccc1)c1ccc(N2CCCCCC2)cc1` is -0.712%; for `COc1ccc(/C=C2\Sc3nc(-c4ccccc4)nc(C)c3C2=O)cc1` it is -0.994%; for `COc1cccc(OC)c1C(=O)Nc1nc2ccccc2s1` it is 0.361%. In the case of `Cc1ccc2nc(N(CCCN(C)C)C(=O)c3cc4ccccc4oc3=O)sc2c1`, the “% Inhibition @ 10 uM” value is -1.87%. The figure for `Clc1ccc(CN2C3=NCCCN3c3ccccc32)c(Cl)c1` is 2.45%; for `CCOC(=O)C1=C(C(F)(F)F)Nc2ncnn2C1c1ccc(OC)cc1` (stereo not drawn) it is -1.62%.

Turning to `COc1ccc(C2NCCc3[nH]cnc32)c(OC)c1` (stereo not drawn), the “% Inhibition @ 10 uM” value is listed as -4.43%. The figure for `CC(C)CCn1c(C(C)O)nc2ccccc21` (stereo not drawn) is -3.63%; for `COc1ccc(N2CC(C(=O)Nc3ncccc3C)CC2=O)cc1` (stereo not drawn) it is 2.42%; for `CCCN1C(=O)/C(=C/c2ccc(C)o2)S/C1=N/c1ccc(OC)cc1` it is 6.73%. The figure for `Cc1nc2ccc(S(=O)(=O)NCC(=O)N3CCc4ccccc4C3)cc2s1` is -6.09%; for `CCOc1cccc(C(=O)Nc2nnc(-c3ccc4c(c3)OCO4)s2)c1` it is -1.93%.

Take `CCOC(=O)C1=C(CS(=O)(=O)c2ccc(C)cc2)NC(=O)NC1c1cc(OC)c(O)c(OC)c1` (stereo not drawn): the “% Inhibition @ 10 uM” value stood at 1.24%. As for `CCCCCCN1C(=O)C(O)=C(C(C)=O)C1c1ccc(OC)cc1` (stereo not drawn), the “% Inhibition @ 10 uM” value is recorded as -2.39%. `CC(C)c1ccc(C2c3c(oc4ccccc4c3=O)C(=O)N2Cc2ccc3c(c2)OCO3)cc1` (stereo not drawn): the “% Inhibition @ 10 uM” value is -5%. With `O=c1c2cc(Br)ccc2ncn1Cc1ccccc1Cl` the figure was 1.86%; with `COc1ccc(CC(=O)NCC2CCCO2)cc1` (stereo not drawn), -8.88%. With `CC(C)Oc1ccc(CNC(=O)C2CCCN(c3nn4cc(-c5ccc(F)cc5)nc4s3)C2)cc1` (stereo not drawn) the figure was 0.95%; with `Cc1cc(C)n(C(=O)COc2ccc(Br)cc2C)n1`, -1.81%.

Consider `O=C(O)c1ccccc1C(=O)Nc1ccc(N2CCN(c3ccccc3)CC2)cc1`, for which the “% Inhibition @ 10 uM” value amounted to 0.214%. As to `O=C(Cc1ccccc1)NCc1nc2ccccc2n1Cc1ccccc1F`, the “% Inhibition @ 10 uM” value is on record as -4.86%. The figure for `O=C(Nc1ccc(Nc2ccccc2)cc1)c1ccccc1` is -4.82%.

The values are drawn from PMC6919601, “Identification of Plasmodium dipeptidyl aminopeptidase allosteric inhibitors by high throughput screening” (PLoS ONE, 2019).
